# From the BET-seq Pho4 binding data (Le et al. 2018)
# The other results are listed elsewhere or left out. Values were computed here from the reads of four pooled replicates and scatter widely.
# Molecular target: T1, Pho4 (S. cerevisiae) (UniProt P07270)
# T1 sequence: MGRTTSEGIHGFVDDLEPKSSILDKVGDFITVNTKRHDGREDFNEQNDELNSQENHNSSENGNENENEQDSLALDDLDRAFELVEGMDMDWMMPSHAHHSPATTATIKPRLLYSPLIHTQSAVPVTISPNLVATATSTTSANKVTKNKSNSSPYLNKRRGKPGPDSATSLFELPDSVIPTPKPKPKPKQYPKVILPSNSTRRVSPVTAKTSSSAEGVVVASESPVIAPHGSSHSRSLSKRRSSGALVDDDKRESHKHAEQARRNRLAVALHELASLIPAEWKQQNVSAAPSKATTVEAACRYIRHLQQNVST
# Assay: relative binding free energy (BET-seq); higher = weaker binding
# Conditions: reference: library average
row,Sequence,relative binding free energy [kcal/mol]
1,CGTTTCACGTGAGGTT,0.38
2,AAAGCCACGTGGTGTG,-0.15
3,GTTGGCACGTGAGATC,0.24
4,ATTAGCACGTGGGTGT,-0.18
5,GGACGCACGTGGGGGG,-0.22
6,TTGCGCACGTGGTACT,-0.11
7,GCATTCACGTGGTGGG,0.31
8,GCGTTCACGTGGTTGA,0.33
9,CGGGGCACGTGGTGGA,-0.13
10,CTTCACACGTGTTGGG,0.11
11,TATTGCACGTGCGTTT,-0.2
12,GTTGTCACGTGTTTAA,0.09
13,GTGGACACGTGGAATT,0.23
14,GTAATCACGTGATAGT,0.13
15,GCTGGCACGTGCGGAG,-0.11
16,TTGAACACGTGTATGT,0.07
17,GGCGGCACGTGGTCGG,-0.06
18,TTTGTCACGTGGTGTT,0.03
19,TTTAGCACGTGAGGTT,0.11
20,TATTTCACGTGAGCGG,0.45
21,TTCGTCACGTGGGCTG,-0.12
22,CTAGTCACGTGTAGAG,0.17
23,GGTCGCACGTGAATGG,0.25
24,GCGTTCACGTGTAGTT,0.1
25,TGGTCCACGTGGGAGA,0.04

row,Sequence,relative binding free energy [kcal/mol]
1,GTAGGCACGTGTATGC,-0.2
2,CTGTTCACGTGGGGTC,0.12
3,GTGTTCACGTGGGTTC,0.36
4,TGTGTCACGTGCGGCT,-0.04
5,TTTAGCACGTGGTCGT,-0.19
6,TTTTACACGTGTGAGG,0.13
7,TTATTCACGTGATCAG,0.28
8,TGGCTCACGTGGGCTA,0.19
9,AGGGTCACGTGGAAAA,0.26
10,ATGTCCACGTGATGTA,0.21
11,TATAACACGTGTGATT,-0.09
12,ATGGGCACGTGTAGAT,0.17
13,ATGGGCACGTGTCGGA,-0.06
14,ATTCACACGTGTATGT,0.19
15,TTATGCACGTGTAAAA,0.08
16,ATTTTCACGTGTGAAG,0.21
17,TAGTTCACGTGAGGCT,0.4
18,ATGGGCACGTGGTGAG,-0.14
19,TTAAGCACGTGGAAGG,-0.04
20,CTTAGCACGTGGGTGA,-0.24
21,TGTAACACGTGGTTTA,0.08
22,TATTGCACGTGTAGTG,0.08
23,AATAACACGTGGGGTC,-0.07
24,TCGTTCACGTGTTGTC,0.42
25,GGATACACGTGGAAGG,0.16

row,Sequence,relative binding free energy [kcal/mol]
1,GAGCACACGTGGGGTT,0.01
2,TCTTGCACGTGGGAGA,0
3,TATGGCACGTGGCTTA,-0.18
4,TTCAGCACGTGTTTAA,-0.06
5,ATAATCACGTGGGGGA,-0.13
6,AGCTGCACGTGTGTTA,-0.09
7,ATTATCACGTGTAGCT,0.16
8,TCTGACACGTGGTTTA,-0.02
9,ATGGCCACGTGAGGTA,0.11
10,GTTGCCACGTGATATT,0
11,AATTGCACGTGTGGTG,0.06
12,AAGGTCACGTGCGAGT,0.13
13,GTTTCCACGTGTTTAT,0.1
14,TTCGGCACGTGGTTCA,-0.08
15,ATAGTCACGTGAAAGT,0.23
16,GGTTCCACGTGTGTGC,0.08
17,TATGACACGTGTACTT,0.09
18,GGAGGCACGTGGGTAG,-0.25
19,GAAGTCACGTGGTTTA,-0.02
20,AATTTCACGTGTTATT,0.32
21,TGCGTCACGTGGATTT,0.22
22,GATCACACGTGATGTT,0.29
23,GAAGGCACGTGTAATA,0.21
24,AGGCGCACGTGGAGGT,-0.06
25,CTGGGCACGTGGGGAC,-0.19

row,Sequence,relative binding free energy [kcal/mol]
1,TTAAACACGTGAAGTG,0.13
2,CTTTGCACGTGTTAGG,0.02
3,GGATGCACGTGGAGGA,-0.01
4,GGGGTCACGTGACGAT,0.13
5,GCTCACACGTGGTGTG,0.02
6,GCAGTCACGTGATTTG,0.26
7,GGTGGCACGTGTTGCA,-0.01
8,TAGTGCACGTGAATTG,0.19
9,CGTTGCACGTGAGAAT,0.31
10,CCGATCACGTGTTTGT,0.21
11,TATTGCACGTGGAAGT,0.08
12,CTGGGCACGTGTCTGT,-0.13
13,TGTGACACGTGTTCAG,0.12
14,TGAGGCACGTGTAAAT,0.05
15,AAGGTCACGTGAGGAA,0.3
16,AGGGTCACGTGTTTCT,0.09
17,ATGTGCACGTGTACTG,-0.08
18,GTTGACACGTGTTGGT,0.02
19,GTGTCCACGTGATAAG,0.32
20,TCTATCACGTGTATTT,0.14
21,TGTTACACGTGATTAG,0.11
22,GATAGCACGTGGTCTG,-0.18
23,CCAGGCACGTGTGGGT,0.01
24,GTTGGCACGTGCTAAG,-0.07
25,CTTGGCACGTGGTAGC,-0.16

row,Sequence,relative binding free energy [kcal/mol]
1,GATATCACGTGAGGAG,0.39
2,GTGGTCACGTGGAATG,0.2
3,GACAGCACGTGTGGTT,0.02
4,ATTGGCACGTGTTGTA,-0.12
5,TTCTGCACGTGTTATG,-0.11
6,AGCAGCACGTGAAGGT,0.19
7,GTATTCACGTGGGGTA,0.2
8,AGTTCCACGTGGGTTT,-0.03
9,GGATGCACGTGTGAGA,0.09
10,TTGGGCACGTGGTGAT,-0.11
11,TGTGACACGTGTTGTA,0.04
12,GTGCTCACGTGGTTTC,0.34
13,TTACGCACGTGCTGGT,-0.1
14,TTAGTCACGTGGTTAA,0.08
15,GAGGACACGTGCAGGG,0.14
16,TTAGTCACGTGTCAGG,0.09
17,TGGTACACGTGGTAAT,0.02
18,TGTTACACGTGCTGTG,0.05
19,ATAGGCACGTGAATCG,0.15
20,TGTGTCACGTGCTTGT,0.03
21,TCGGGCACGTGTTGGT,-0.05
22,TAAGGCACGTGAGTAA,0.14
23,GGAATCACGTGTGTCT,0.14
24,GGTCGCACGTGTGGCA,0.07
25,AGCTACACGTGGGTTA,0.04

row,Sequence,relative binding free energy [kcal/mol]
1,GGGTGCACGTGGCTGA,-0.13
2,GGCTACACGTGTAGGA,0.13
3,GGGTTCACGTGGCCGG,0.28
4,TGGTTCACGTGGCTCA,0.26
5,GTATGCACGTGTTAGC,0.1
6,GGGCTCACGTGATGCG,0.33
7,TAGAGCACGTGTAGCG,-0.09
8,TGGCGCACGTGGATTG,-0.06
9,TCAATCACGTGAGTTG,0.27
10,TGGTACACGTGTATCT,-0.02
11,GAAAACACGTGGGGAT,0.01
12,AGTTTCACGTGAGTGG,0.41
13,ATAGACACGTGTGGGG,0
14,ATTTACACGTGTGCGT,0.07
15,AACGTCACGTGGATGT,-0.03
16,GGCGACACGTGTTAGG,0.07
17,AGGGGCACGTGGACGA,-0.15
18,TTTGGCACGTGTTGAG,-0.06
19,CACGGCACGTGTGGGG,-0.05
20,ATGGACACGTGGATGA,0.09
21,TGGAGCACGTGCGGTT,-0.17
